Laboratory results: publication PMC4336329 (PLoS ONE, 2015)
Among all 310,000 compounds or so, about 14,000 (4.5%) showed an effect of 50% or more. Effects have a minus sign here. The list shows a part of the results.

Molecular target: human ether-à-go-go-related gene (hERG) potassium channel (human, UniProt Q12809)
Test: primary screen, population patch clamp on CHO cells stably expressing hERG
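Also: peak tail current of the secondary pulse compared with the same well before compound.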

Chain of human ether-à-go-go-related gene (hERG) potassium channel (Q12809 whole entry, looked up): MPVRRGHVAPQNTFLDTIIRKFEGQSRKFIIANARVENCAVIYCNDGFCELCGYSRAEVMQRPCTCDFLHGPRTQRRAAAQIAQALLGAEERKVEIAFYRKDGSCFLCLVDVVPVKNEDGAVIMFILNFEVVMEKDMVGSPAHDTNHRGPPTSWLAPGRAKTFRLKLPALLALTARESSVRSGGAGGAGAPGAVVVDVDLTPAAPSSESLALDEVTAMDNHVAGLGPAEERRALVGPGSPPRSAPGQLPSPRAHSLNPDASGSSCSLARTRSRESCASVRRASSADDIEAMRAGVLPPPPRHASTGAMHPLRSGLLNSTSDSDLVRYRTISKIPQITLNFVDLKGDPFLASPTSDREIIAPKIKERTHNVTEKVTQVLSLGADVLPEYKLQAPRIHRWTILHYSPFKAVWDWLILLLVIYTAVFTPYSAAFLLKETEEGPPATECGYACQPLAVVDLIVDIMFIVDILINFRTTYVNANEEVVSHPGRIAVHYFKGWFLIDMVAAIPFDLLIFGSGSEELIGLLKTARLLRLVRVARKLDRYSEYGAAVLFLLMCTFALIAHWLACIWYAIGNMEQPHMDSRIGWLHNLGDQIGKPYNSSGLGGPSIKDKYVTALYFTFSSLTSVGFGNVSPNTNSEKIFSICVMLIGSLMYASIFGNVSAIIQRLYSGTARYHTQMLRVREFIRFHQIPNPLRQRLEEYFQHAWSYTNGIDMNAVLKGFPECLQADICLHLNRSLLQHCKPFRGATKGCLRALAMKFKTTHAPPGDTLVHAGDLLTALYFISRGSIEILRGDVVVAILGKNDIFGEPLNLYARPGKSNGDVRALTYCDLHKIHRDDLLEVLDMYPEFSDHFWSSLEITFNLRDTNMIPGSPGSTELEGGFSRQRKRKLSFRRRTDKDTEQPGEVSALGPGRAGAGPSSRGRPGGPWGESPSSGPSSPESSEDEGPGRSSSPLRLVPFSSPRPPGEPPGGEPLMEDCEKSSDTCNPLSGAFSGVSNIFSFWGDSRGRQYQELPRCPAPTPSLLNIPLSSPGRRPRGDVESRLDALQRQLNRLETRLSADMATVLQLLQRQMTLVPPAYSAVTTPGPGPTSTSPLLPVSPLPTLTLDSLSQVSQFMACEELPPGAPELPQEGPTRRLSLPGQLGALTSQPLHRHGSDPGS

Compound	hERG current change (%, negative = inhibition) at 10uM [%]
C=CCc1ccccc1OCC(O)CN1CCN(c2ccc(OC)cc2)CC1.Cl (stereo not drawn)	-66.5
O=C(Cc1ccccc1)N/N=C/c1cc2c(cc1Cl)OCO2	1.85
CC(C(=O)Nc1cc(C(F)(F)F)ccc1N1CCOCC1)N1C(=O)C2CCCCC2C1=O (stereo not drawn)	-10.9
O=C(NNc1ccc([N+](=O)[O-])cc1)c1ccco1	-4.27
Cc1ccc(SCC(=O)Nc2ccc(S(=O)(=O)Nc3nccs3)cc2)cc1	4.08
O=C(Nc1ccc2ccccc2c1)c1ccc2[nH]c(=O)c(=O)[nH]c2c1	21.3
Clc1ccccc1Oc1cnc2ccccc2n1	-21.4
Cc1cc(C)nc(NC(=S)NC(=O)c2ccccc2)n1	19.3
CCc1noc(C)c1C(=O)Nc1nnc(CC(C)C)s1	-2.27
COc1ccc(-c2oc3ccccc3c2C#CC(C)(C)O)cc1	11.7
CCN1C(=S)SC(=O)C1=C1C=C(C)N(CCO)C(C)=C1	-3.65
COc1ccccc1C(=O)NCCC(=O)N1CCN(c2ccccc2O)CC1	14.1
Cc1nc(C)c(-c2csc(Nc3ncccc3C)n2)s1	15.7
O=C1CSC(c2cccc([N+](=O)[O-])c2)N1c1ccccc1 (stereo not drawn)	3.55
CCCN(Cc1cc2cccc(C)c2[nH]c1=O)S(C)(=O)=O	-11
Cc1[nH]c2ccccc2c1C(=O)C(=O)N1CCC2(CC1)OCCO2	7.95
CC(=O)Nc1cccc(C(=O)N/N=C/c2ccccc2F)c1	7.22
CC(=O)CSc1nc(C(F)(F)F)cc(=O)n1-c1ccccc1	4.91
COc1ccc(-c2cc(C3CCNCC3)[nH]n2)cc1	18.7

Compound	hERG current change (%, negative = inhibition) at 10uM [%]
COc1ccc(NC(=O)CN(C)C(=O)c2ccccc2Sc2ncnc3sc(C)c(C)c23)cc1	-7.35
Cc1cccc(OCC(=O)NCC(=O)N=Nc2c(O)[nH]c3ccc([N+](=O)[O-])cc23)c1	4.94
CC(C)CNC(=O)/C(C#N)=C1\N=C(NC(=O)c2ccco2)c2ccccc21	-60.4
Cc1cc(C)nc(NS(=O)(=O)c2ccc(NC(=O)c3ccc4c(c3)OCCO4)cc2)n1	40.7
CCc1cccc(C)c1NC(=O)CC(C)(C)CC(=O)O	10.5
O=C(O)Cn1c(Cc2ccccc2)nc2ccccc21	-3.32
CC1CN(C(=O)c2cc(S(=O)(=O)N3CCCC3)c(Cl)cc2Cl)CC(C)O1 (stereo not drawn)	3.85
O=C(c1ccc2ncsc2c1)N1CCN(c2ccc(O)cc2)CC1	-16.9
O=C(CCCC(=O)N(c1ccc2c(c1)OCCO2)C(C(=O)NC1CCCCC1)c1ccc(Cl)cc1)Nc1ccccn1 (stereo not drawn)	5.1
Cn1nc(OCC(=O)O)cc1C(F)(F)F	11.6
CCC1CO/C(=C(\C(Cl)=C(Cl)Cl)[N+](=O)[O-])N1 (stereo not drawn)	24.3
CC(=O)c1ccc(OCC(=O)NCC2(N3CCCCC3)CCCCC2)cc1	4.71
Cc1ccccc1C(=O)N1CCC(C(=O)Nc2ccc(C(C)C)cc2)CC1	-29.3
COc1cccc(Nc2cc(N3CCOCC3)c3nonc3c2[N+](=O)[O-])c1	-8.87
COc1ccc(P2(=O)Nc3ccccc3N2)cc1	-1.63
CO/C([O-])=N/c1c[n+](-c2ccc(C)cc2)no1	-1.06
CCC(=O)c1ccc(OCCN2CCOCC2)cc1	-6.65
CC1CCCC(NC(=O)Nc2cccs2)C1C (stereo not drawn)	-20.3
COc1cc(Cl)c(CN2CCCC(CO)(Cc3ccccc3)C2)cc1OC (stereo not drawn)	-55.2

Compound	hERG current change (%, negative = inhibition) at 10uM [%]
COc1ccc(CCNC(=O)c2nnn(CC(=O)Nc3ccccc3)c2N)cc1OC	4.48
Cc1ccc(CN(C(=O)C(F)(F)F)C(C(=O)NC2CCCCC2)c2ccco2)cc1 (stereo not drawn)	-7.52
CCCNC(=O)c1ccccc1NC(=O)c1ccc(CSc2ccccc2)cc1	0.292
CCOC(=O)c1c(O)c2ccccc2oc1=O	-18.7
COc1ccc(CCC(=O)NC2=NCCS2)cc1OC	12.6
CC(CCCCCCCCC(=O)O)N(CCO)C(=O)OC(C)(C)C (stereo not drawn)	9.6
CCOC(=O)C1=C(N)OC2=C(C(=O)CC(C)(C)C2)C1c1ccoc1 (stereo not drawn)	-16.1
CN(C)c1ccc(CNC(=O)c2ccc(CNc3c(N4CCCCC4)c(=O)c3=O)cc2)cc1	8.31
O=[N+]([O-])c1cc(-c2n(-c3ccccn3)c3ccccc3[n+]2-c2ccccn2)ccc1Cl.[I-]	-15.6
COc1ccc(-c2[nH]ncc2CN(C)CCN2CCOCC2)cc1F	16.6
N/C(Cc1ccc([N+](=O)[O-])cc1)=N\OC(=O)C(c1ccccc1)c1ccccc1	-66.9
COc1ccc(CCNC(=O)COc2cc(C)cc3oc(=O)cc(C)c23)cc1OC	1.42
CSc1nc2ncc3c(n2n1)CC(C)(C)CC3=O	-16.7
Cc1ccc(S(=O)(=O)CCC(=O)OCC(=O)NC(C)c2ccccc2)cc1 (stereo not drawn)	6.54
CN(C)CCCNC(=O)c1ccc(Cl)c(S(=O)(=O)N(C)c2ccccc2)c1.Cl	-35
CC12CN(Cc3ccccc3)CC(C)(CN(Cc3ccccc3)C1)C2=NO	-25.5
CCN1CCN(c2nc(-c3ccncc3)nc3ccccc23)CC1	-77.8
CC1CCC2C(C)C(=O)OC3OC4(C)CCC1C32OO4 (stereo not drawn)	9.69
O=[N+]([O-])c1ccc(-c2ncc(-c3ccc(Br)cc3)o2)cc1	14.1
